# Results as given in article PMC4336329 (PLoS ONE, 2015).
# Among all 310,000 compounds or so, about 14,000 (4.5%) showed an effect of 50% or more. The effect is printed as a negative number. This is one part of the list.
# Molecular target: human ether-à-go-go-related gene (hERG) potassium channel (human, UniProt Q12809)
# Assay: primary screen, population patch clamp on CHO cells stably expressing hERG
# 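Note: peak tail current of the secondary pulse compared with the same well before compound.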
# human ether-à-go-go-related gene (hERG) potassium channel, sequence (Q12809 whole entry, looked up): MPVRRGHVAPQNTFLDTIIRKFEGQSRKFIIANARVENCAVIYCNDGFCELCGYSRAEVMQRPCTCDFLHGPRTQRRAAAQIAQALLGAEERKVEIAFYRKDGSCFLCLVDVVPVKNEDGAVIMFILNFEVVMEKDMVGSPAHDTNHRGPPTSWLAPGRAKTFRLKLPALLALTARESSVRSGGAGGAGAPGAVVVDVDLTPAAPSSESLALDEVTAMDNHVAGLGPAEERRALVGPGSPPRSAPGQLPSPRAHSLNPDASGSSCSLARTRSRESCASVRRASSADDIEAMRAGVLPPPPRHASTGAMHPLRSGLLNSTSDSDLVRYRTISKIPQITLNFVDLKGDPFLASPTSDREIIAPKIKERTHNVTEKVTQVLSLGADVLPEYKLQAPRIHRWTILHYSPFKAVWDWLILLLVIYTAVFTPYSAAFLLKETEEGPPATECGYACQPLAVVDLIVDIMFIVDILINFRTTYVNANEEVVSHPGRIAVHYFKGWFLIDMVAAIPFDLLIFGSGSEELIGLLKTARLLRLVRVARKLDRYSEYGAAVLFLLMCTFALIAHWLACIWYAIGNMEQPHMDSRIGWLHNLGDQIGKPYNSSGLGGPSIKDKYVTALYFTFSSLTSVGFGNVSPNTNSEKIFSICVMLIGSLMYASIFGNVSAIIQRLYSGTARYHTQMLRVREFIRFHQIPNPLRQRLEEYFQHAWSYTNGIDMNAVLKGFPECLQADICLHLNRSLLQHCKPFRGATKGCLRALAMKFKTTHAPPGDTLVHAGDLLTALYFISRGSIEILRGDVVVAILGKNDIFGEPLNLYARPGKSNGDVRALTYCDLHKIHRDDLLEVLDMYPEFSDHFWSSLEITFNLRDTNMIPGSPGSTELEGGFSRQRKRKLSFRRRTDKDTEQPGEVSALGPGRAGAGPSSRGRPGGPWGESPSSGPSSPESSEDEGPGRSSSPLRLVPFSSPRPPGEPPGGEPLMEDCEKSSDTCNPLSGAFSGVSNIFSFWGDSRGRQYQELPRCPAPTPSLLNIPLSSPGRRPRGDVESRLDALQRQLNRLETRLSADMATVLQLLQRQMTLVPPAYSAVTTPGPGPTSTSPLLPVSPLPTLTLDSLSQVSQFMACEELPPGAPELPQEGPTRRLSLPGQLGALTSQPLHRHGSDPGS
row,Compound,"hERG current change (%, negative = inhibition) at 10uM [%]"
1,S=C(NCc1ccco1)Nc1cccc(Cl)c1Cl,-3.13
2,Cc1ccc(C)c(S(=O)(=O)N2CCCOC2CNC(=O)C(=O)NCCCN2CCOCC2)c1 (centres unmarked),0.752
3,COC(=O)C1=C(c2ccccc2OCc2ccccc2)C[C@@H]2CC[C@H]1N2C(=O)NCc1ccc(Cl)cc1,18.9
4,Cc1ccccc1C(=O)NC(=S)Nc1ccccc1C(F)(F)F,16.8
5,COc1cccc(-n2ccnc2SCC(=O)Nc2ccccc2F)c1,-27
6,COc1cc(C(=O)O/N=C(\N)Cc2ccc([N+](=O)[O-])cc2)cc(OC)c1OC,-68.9
7,CN1CCCC(C(=O)c2ccc(Cl)cc2)C1 (centres unmarked),-23
8,Cn1cc(S(=O)(=O)NCC2CCCO2)c(=O)n(C)c1=O (centres unmarked),-9.16
9,O=C(O)c1cc(O)c2c(c1)C(=O)c1cc(O)cc(O)c1C2=O,19.9
10,COc1ccc2nc(C)cc(C(=O)O)c2c1,0.7
11,COc1ccc(-c2noc(CN(C)C(=O)CCN3C(=O)[C@H]4CC=CC[C@H]4C3=O)n2)cc1,-2
12,COc1ccc(CCNC(=O)NC2CCCCC2)cc1,0.125
13,O=C(O)c1cccc(S(=O)(=O)Nc2ccc3c(c2)CCC3)c1,22.8
14,S=C(Nc1ccccc1)N1CCN(C2CCCCC2)CC1,-2.89
15,COc1ccccc1/C=N/NC(=O)CC(=O)NCc1cccnc1,7.63
16,Cc1ccc(NC(=O)C2CCCN2C(=O)OCc2ccccc2)c(C)c1 (centres unmarked),12.7
17,COc1ccc(CN(C)Cc2nc3cc(OC)c(OC)cc3c(=O)[nH]2)c(OC)c1,-16.9
18,O=c1ncn(-c2ccccc2C(F)(F)F)c2ncccc12,14.9
19,COC(=O)C1CCN(C(=O)C2CCC(=O)N(CCCc3ccccc3)C2)CC1 (centres unmarked),3.83
20,CCOC(=O)CC(c1ccc(N)cc1)n1c(C)ccc1C (centres unmarked),-10.9
21,COC(=O)c1[nH]c2ccccc2c1NC(=O)CN1CCN(C(=O)c2ccco2)CC1,-32.8
22,CCOc1ccccc1NC(=O)CCNS(=O)(=O)c1cccc2nsnc12,-2.99

row,Compound,"hERG current change (%, negative = inhibition) at 10uM [%]"
1,Cc1cc(NC(=O)CC(C)C)c(=O)n(Cc2cccc(F)c2)c1,-2.84
2,CCOC(OCC)c1cn(Cc2ccc3c(c2)C(=O)c2ccccc2C3=O)nn1,12.6
3,Cc1ccc(S(=O)(=O)NNC(=O)c2ccncc2)cc1[N+](=O)[O-],44.8
4,O=C(CSc1nnc(C2CC2)n1Cc1ccccc1)c1ccc(S(=O)(=O)N2CCOCC2)cc1,-23
5,COc1cc(C(=O)Nc2ccc3c(c2)ncn3C)cc(OC)c1OC,16.2
6,O=C(CNC(=S)NC(=O)c1ccccc1)c1ccccc1,-4.68
7,O=C(NCc1ccccc1F)C1CCCN1C(=O)Nc1ccc(Cl)cc1 (centres unmarked),17.2
8,COc1ccc(-c2nnc3ccc(SCC(=O)N4CCCC4)nn23)cc1,-15.2
9,CCCc1nnc(SCC(=O)Nc2nccs2)o1,9.99
10,O=C(COC(=O)C1CC(=O)N(Cc2ccccc2)C1)Nc1ccc2c(c1)OCO2 (centres unmarked),5.98
11,Cc1cc(Cl)ccc1OCC(=O)N/N=C1\CC2C=CCC12 (centres unmarked),-19.7
12,Cc1ccc(S(=O)(=O)N2CCN(S(=O)(=O)N3CCCCC3)CC2)cc1C,2.99
13,CCc1nc2nc(C)c(NS(=O)(=O)c3ccc(Br)s3)c(=O)n2[nH]1,13.8
14,CN(C)C(=O)C1C2NC(=S)N(c3cccc(Cl)c3)C1(C)Oc1ccc(Cl)cc12 (centres unmarked),29.5
15,O=C(NCCCn1ccnc1)c1cnn2c1NC(c1ccccc1)CC2C(F)(F)F (centres unmarked),-25.7
16,CC1Cc2ccccc2N1C(=O)CSc1nnc(-c2ccc(S(=O)(=O)N3CCCC3)cc2)n1C (centres unmarked),-16.5
17,CN1C(=S)SC(N(O)C(=O)Nc2ccccc2)C1(C)C (centres unmarked),-1.77
18,Cc1cccc(Cn2cccc2/C=C2/C(=N)N3C=CSC3=NC2=O)c1,-1.72
19,Cc1ccc(C(=O)N2CCN(C3c4cccc5cccc(c45)C3NS(=O)(=O)c3ccccc3)CC2)cc1 (centres unmarked),2.23
20,CCCOC(=O)c1c(NC(=O)CSc2nc(-c3ccco3)cc(C(F)(F)F)n2)sc(C(=O)OC)c1C,-5.81
21,Cc1cc(C(=O)Nc2ccon2)c(C)o1,14.2
22,Cc1nc(N2CCCC2C(=O)O)c2oc3ccccc3c2n1 (centres unmarked),14.7
